The whole screen tested about 94,000 compounds, of which about 20 (0.02%) were called active. Inconclusive results, whose numbers are uncertain, are shown with a selection of clear calls. Calls follow the shape of the dose curve; as a rule, active = well fitted activation curve with a large enough effect; inconclusive = small, poorly fitted or top-dose-only effect; inactive = flat fitted curve, though single readings scatter. No potency is given beside an inconclusive call; the fits are too rough.
Assay: qHTS of alpha-syn Inhibitors: NCGC Sytravon Library Screen; as to growth rescue (activation): 0% is about no effect
Settings: S. cerevisiae alpha-synuclein toxicity rescue, BacTiter-Glo growth, 24 h; growth rescue (activation): at 46.1 µM (top of the series)
Procedure, shortened: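 Growth restoration measured by BacTiter-Glo luminescence after 24 hr at 30 deg C; alpha-synuclein yeast, raffinose-pregrown to mid-log, were added at OD600=0.02 in galactose medium onto pinned compounds.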
Potency is read from the fitted curve at half-maximal effect; tags tell the direction and shape of the fitted curve.

Structure (SMILES) | Potency | growth rescue (activation)
CCc1ccc(-n2c(SCc3nc(-c4cc(OC)ccc4OC)no3)nnc2-c2ccccc2)cc1 | inconclusive [activator, single point] | 
CCOC(=O)Cn1c(=O)n(-c2ccccc2OC)c2nc(-c3ccccc3)nc(C(N)=O)c21 | inconclusive [activator, single point] | 
COc1cccc(NC(=O)CCSc2nc(-c3ccco3)cc(C(F)(F)F)n2)c1 | inconclusive [activator, single point] | 
CC(C)(C)NC(=O)C(c1ccc(O)cc1)N(Cc1ccc2c(c1)OCO2)C(=O)CCl (configuration not stated) |  | inactive: 7.25%
CCOc1ccc(Nc2nc(N)c(C(=O)c3ccccc3Cl)s2)cc1 | inconclusive [activator, single point] | 
Fc1ccc(Nc2nc(SCc3cccc(F)c3)nc3ccccc23)cc1 |  | inactive: -27.1%
CC(=O)OC1=C(C(C)=O)N(Cc2ccccc2)S(=O)(=O)c2ccccc21 | inconclusive [activator, single point] | 
Cc1nc(N(C)Cc2ccccc2)c2c(C)c(C)sc2n1 |  | inconclusive: 47.9% [activator]
CN(Cc1ccc(F)cc1Cl)S(=O)(=O)c1cccs1 |  | inactive: 10.8%
O=C(NC1CCCC1)c1ccc2c(=O)n(Cc3ccccc3)c(SCc3ccc([N+](=O)[O-])cc3)nc2c1 | inconclusive [activator, single point] | 
COc1ccc(-c2[nH]c3ccccc3c2SCCNC(=O)c2ccc(S(=O)(=O)N(C)C)cc2)cc1 |  | inactive: 8.02%
Cc1ccc2c(c1)-c1c(cnn1CC(=O)N1CCN(c3cc(Cl)ccc3C)CC1)CO2 | inconclusive [activator, single point] | 
CCN1CCC(N(Cc2ccc(F)cc2)C(=O)Nc2cc(Cl)ccc2C(=O)OC)CC1 |  | inactive: 10.4%
Cc1cccc(N2CCN(C(=O)C3CCN(S(=O)(=O)c4cccs4)CC3)CC2)c1C | inconclusive [activator, single point] | 
O=C(CCc1cn(Cc2ccccc2F)c2ccccc12)NCc1ccc(Cl)cc1 | inconclusive [activator, single point] | 
Cc1ccc(-n2ncc3c(N(CCO)Cc4ccccc4)ncnc32)cc1 | inconclusive [activator, partial curve] | 
COc1ccc(CCCc2nnc(SCC(=O)Nc3ccccc3F)o2)cc1C |  | inactive: -0.125%
COC(=O)c1ccccc1NC(=O)c1cc(=O)c2ccc(C)c(C)c2o1 | inconclusive [activator, single point] | 
Cc1nnc2c3ccccc3nc(N3CCN(c4cccc(Cl)c4)CC3)n12 | inconclusive [activator, single point] | 
Nc1ccc2c(c1)C(=O)c1ccccc1-2 |  | inconclusive: 31.2% [activator]
Cc1cc2ccccc2n1-c1ccc(C(=O)N2CCC(C(=O)NCc3ccc(F)cc3)CC2)s1 | inconclusive [activator, single point] | 

Structure (SMILES) | Potency | growth rescue (activation)
Cc1ccc(C)c(-c2ccc(=O)n(C(C)C(=O)Nc3ccccc3C(F)(F)F)n2)c1 (configuration not stated) | inconclusive [activator, single point] | 
O=Cc1ccc2ccc3cccnc3c2n1 |  | inconclusive: 114% [activator]
O=C(C1CCN(S(=O)(=O)c2ccc(Br)s2)CC1)N1CCN(c2ccc(F)cc2)CC1 | inconclusive [activator, partial curve] | 
CCOCC(=O)Nc1ccc(-c2cn3c(C)csc3n2)cc1 |  | inactive: -8.4%
CCCCOc1ccc(C(=O)NCCS(=O)(=O)N2CCN(c3ccccc3OC)CC2)cc1 | inconclusive [activator, single point] | 
CCOC(=O)c1cc(S(=O)(=O)N2CCN(c3cc(Cl)ccc3C)CC2)[nH]n1 | inconclusive [activator, single point] | 
CC1CCCN(C(=O)CCS(=O)(=O)c2cc3c(cc2Cl)NC(=O)CO3)C1 (configuration not stated) | inconclusive [activator, single point] | 
COc1ccc(-c2nc3sc(CCNS(=O)(=O)c4c(C)cc(C)cc4C)c(C)n3n2)cc1 | inconclusive [activator, single point] | 
COc1ccc(S(=O)(=O)NCCc2sc(-c3cccc(F)c3)nc2C)cc1 | inconclusive [activator, single point] | 
Cc1cccc(N2CCN(C(=O)c3cnn(-c4ccccc4Cl)c3C3CCN(C(=O)OC(C)(C)C)CC3)CC2C)c1 (configuration not stated) |  | inactive: 4.31%
Cc1nc2sccn2c(=O)c1S(=O)(=O)Nc1ccc(N2CCOCC2)cc1 | inconclusive [activator, single point] | 
Cc1ccc(C2CCN(C(=O)Nc3ccc(Cl)cc3)C2)cc1 (configuration not stated) | inconclusive [activator, single point] | 
CCN1C(C(=O)c2ccccc2)=C(OC(=O)COc2ccc(OC)cc2)c2ccccc2S1(=O)=O |  | inconclusive: -62.3% [activator]
O=C1NC2(CCc3ccccc3C2)C(=O)N1CCOc1cccc(Cl)c1 (configuration not stated) |  | inconclusive: 39.5% [activator]
Cc1c(Cl)ccc2sc(N3CCN(C(=O)CS(=O)(=O)c4ccccc4)CC3)nc12 | inconclusive [activator, single point] | 
CC(=O)c1cccc(NC(=O)c2nc(-c3ccccc3)n(-c3ccccc3C)n2)c1 |  | inactive: -5.14%
COc1ccc(C)cc1Nc1nc(N)c2cc(OC)c(OC)cc2n1 |  | inactive: -3.93%
OCCNc1nc(-c2ccccc2)c2cc(Br)ccc2n1 |  | inconclusive: 37.4% [activator]
COc1ccc2c(Sc3ccc(Cl)cc3)c(C(=O)N3CCCCC3)[nH]c2c1 | inconclusive [activator, single point] | 
COc1ccccc1NC(=O)Cn1c(=O)n(-c2ccc(C)cc2)c(=O)c2c1cnn2C |  | inactive: -7.92%
O=C(Cc1ccc(Cl)cc1)NCC(c1cccs1)S(=O)(=O)c1ccc(Cl)cc1 (configuration not stated) | inconclusive [activator, single point] | 

From PubChem BioAssay AID1347070 (National Center for Advancing Translational Sciences (NCATS), 2019)
